{"source": "patent US20250188179A1", "about": "(ADAGENE PTE, published 2025)", "binders": {"B1": {"name": "TY25372 (antibody, human IgG1, kappa)", "heavy": "EVQLVESGGGLVQPGGSLRLSCAASGFSLSTGGVGVGWIRQAPGKGLEWLALIDWADDKYYSPSLKSRLTISRDNSKNTLYLQLNSLRAEDTAVYYCARGGSDTVIGDWFAYWGQGTLVTVSS[in this place human IgG1 constant region with changes]", "light": "EVGSYTDNYDYCPRLRRKCYHGGGPLGLAGGGSDIQLTQSPSSLSASVGDRVTITCRASQSIGSYLAWYQQKPGKAPKLLIYDASNLETGVPSRFSGSGSGTDFTLTISSLQPEDFATYYCQQGYYLWTFGQGTKVEIKRTVAAPSVFIFPPSDEQLKSGTASVVCLLNNFYPREAKVQWKVDNALQSGNSQESVTEQDSKDSTYSLSSTLTLSKADYEKHKVYACEVTHQGLSSPVTKSFNRGEC", "notes": "Masked, uncleaved; hIgG1 S267E/L328F"}, "B2": {"name": "TY25369 (antibody, human IgG1, kappa)", "heavy": "EVQLVESGGGLVQPGGSLRLSCAASGFSLSTGGVGVGWIRQAPGKGLEWLALIDWADDKYYSPSLKSRLTISRDNSKNTLYLQLNSLRAEDTAVYYCARGGSDTVIGDWFAYWGQGTLVTVSS[in this place human IgG1 constant region with changes]", "light": "EVGSYPTDLDACADAPNHCHFSGRGGGPLGLAGGSDIQLTQSPSSLSASVGDRVTITCRASQSIGSYLAWYQQKPGKAPKLLIYDASNLETGVPSRFSGSGSGTDFTLTISSLQPEDFATYYCQQGYYLWTFGQGTKVEIKRTVAAPSVFIFPPSDEQLKSGTASVVCLLNNFYPREAKVQWKVDNALQSGNSQESVTEQDSKDSTYSLSSTLTLSKADYEKHKVYACEVTHQGLSSPVTKSFNRGEC", "notes": "as for B1"}, "B3": {"name": "TY23310 (antibody, human IgG1, kappa)", "heavy": "EVQLVESGGGLVQPGGSLRLSCAASGFSLSTGGVGVGWIRQAPGKGLEWLALIDWADDKYYSPSLKSRLTISRDNSKNTLYLQLNSLRAEDTAVYYCARGGSDTVIGDWFAYWGQGTLVTVSS[in this place human IgG1 constant region]", "light": "DIQLTQSPSSLSASVGDRVTITCRASQSIGSYLAWYQQKPGKAPKLLIYDASNLETGVPSRFSGSGSGTDFTLTISSLQPEDFATYYCQQGYYLWTFGQGTKVEIKRTVAAPSVFIFPPSDEQLKSGTASVVCLLNNFYPREAKVQWKVDNALQSGNSQESVTEQDSKDSTYSLSSTLTLSKADYEKHKVYACEVTHQGLSSPVTKSFNRGEC", "notes": "Not masked; WT hIgG1 Fc"}, "B4": {"name": "TY21242 (antibody, human IgG4 S228P, kappa)", "heavy": "EVQLVESGGGLVQPGGSLRLSCAASGFSLSTGGVGVGWIRQAPGKGLEWLALIDWADDKYYSPSLKSRLTISRDNSKNTLYLQLNSLRAEDTAVYYCARGGSDTVIGDWFAYWGQGTLVTVSSASTKGPSVFPLAPCSRSTSESTAALGCLVKDYFPEPVTVSWNSGALTSGVHTFPAVLQSSGLYSLSSVVTVPSSSLGTKTYTCNVDHKPSNTKVDKRV[in this place human IgG4 Fc with S228P (EU numbers)]", "light": "B3 light", "notes": "Not masked; WT hIgG4 Fc; also called parental anti-CD137 antibody; TY21242 (parental)"}, "B5": {"name": "TY24118 (antibody, human IgG1, kappa)", "heavy": "EVQLVESGGGLVQPGGSLRLSCAASGFSLSTGGVGVGWIRQAPGKGLEWLALIDWADDKYYSPSLKSRLTISRDNSKNTLYLQLNSLRAEDTAVYYCARGGSDTVIGDWFAYWGQGTLVTVSS[in this place human IgG1 constant region with changes]", "light": "B3 light"}}, "key": {"[1]": {"molecular_target": "T1, full-length human CD137 with C-terminal 3xMyc tag displayed on yeast cells (human, UniProt Q07011 24-255)", "T1 construct": "whole, on cells; not used; also called hCD137; not shown: C-terminal 3xMyc tag", "assay": "FACS titration on yeast displaying full-length hCD137-3xMyc, no protease; data batch 4"}, "[2]": {"molecular_target": "T1, full-length human CD137 with C-terminal …", "assay": "KD divided by KD of parental antibody (TY21242 or TY23310); FACS on yeast hCD137; data batch 4"}, "[3]": {"molecular_target": "CD137 on Jurkat-CD137-NFkB-luciferase reporter cells", "assay": "cell-based or functional assay"}, "[4]": {"molecular_target": "human CD137 on activated human T cells (human, UniProt Q07011 24-255)", "assay": "cell-based or functional assay"}, "[5]": {"molecular_target": "T1, full-length human CD137 with C-terminal …", "assay": "KD divided by KD of parental antibody; FACS on yeast hCD137; data batch 4"}, "[6]": {"molecular_target": "T1, full-length human CD137 with C-terminal …", "assay": "KD divided by KD of parental antibody; FACS on yeast hCD137; data batch 1"}, "[7]": {"molecular_target": "T1, full-length human CD137 with C-terminal …", "assay": "KD divided by KD of parental antibody; FACS on yeast hCD137; data batch 2"}, "[8]": {"molecular_target": "T1, full-length human CD137 with C-terminal …", "assay": "KD divided by KD of parental antibody; FACS on yeast hCD137; data batch 3"}, "[9]": {"molecular_target": "T1, full-length human CD137 with C-terminal …", "assay": "FACS titration on yeast displaying full-length hCD137-3xMyc, no protease; data batch 1"}, "[10]": {"molecular_target": "T1, full-length human CD137 with C-terminal …", "assay": "FACS titration on yeast displaying full-length hCD137-3xMyc, no protease; data batch 2"}, "[11]": {"molecular_target": "T1, full-length human CD137 with C-terminal …", "assay": "FACS titration on yeast displaying full-length hCD137-3xMyc, no protease; data batch 3"}, "[12]": {"molecular_target": "T2, His-tagged recombinant human FcγRIIa (human, UniProt P12318 36-218, limits assumed)", "T2 construct": "His-tagged; also called hFcγRIIa", "T2 sequence (looked up)": "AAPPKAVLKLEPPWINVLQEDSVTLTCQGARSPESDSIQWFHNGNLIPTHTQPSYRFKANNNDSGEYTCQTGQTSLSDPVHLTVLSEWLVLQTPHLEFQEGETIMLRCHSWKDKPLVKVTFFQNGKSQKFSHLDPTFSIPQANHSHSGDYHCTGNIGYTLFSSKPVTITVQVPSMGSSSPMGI", "assay": "BLI (Fortebio), His-tagged FcγR captured on anti-Penta-His sensor, antibody in solution, steady state analysis"}, "[13]": {"molecular_target": "T3, His-tagged recombinant human FcγRIIb (human, UniProt P31994 46-217, limits assumed)", "T3 construct": "His-tagged; also called hFcγRIIb", "T3 sequence (looked up)": "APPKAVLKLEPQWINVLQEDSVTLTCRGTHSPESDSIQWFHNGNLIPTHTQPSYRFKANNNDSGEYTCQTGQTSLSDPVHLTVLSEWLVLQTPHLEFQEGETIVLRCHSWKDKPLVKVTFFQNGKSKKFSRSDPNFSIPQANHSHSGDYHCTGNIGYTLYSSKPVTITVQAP", "assay": "BLI (Fortebio), His-tagged FcγR captured on anti-Penta-His sensor, antibody in solution, steady state analysis"}, "[14]": {"molecular_target": "T4, hCD137 (antigen of the ELISA and FACS assays of Example 2) (human, UniProt Q07011 24-186, limits assumed)", "T4 construct": "also called human CD137", "assay": "ELISA on hCD137"}, "[15]": {"molecular_target": "T4, hCD137 (antigen of the ELISA and FACS …)", "assay": "FACS-based assay on hCD137"}, "[16]": {"molecular_target": "T4, hCD137 (antigen of the ELISA and FACS …)", "assay": "FACS KD relative to parental antibody TY24118"}, "[17]": {"molecular_target": "T4, hCD137 (antigen of the ELISA and FACS …)", "assay": "ELISA EC50 relative to parental antibody TY24118"}}}
{"binder": "B1", "values": [{"measurement": "Kd", "setting": "[1]", "value": 70.9, "unit": "nM"}, {"measurement": "Masking efficiency", "setting": "[2]", "value": 402, "unit": "fold"}]}
{"binder": "B2", "values": [{"measurement": "Kd", "setting": "[1]", "value": 178, "unit": "nM"}, {"measurement": "Masking efficiency", "setting": "[2]", "value": 1010, "unit": "fold"}]}
{"binder": "B3", "values": [{"measurement": "EC50 (nM), Jurkat-CD137-NFkB-luciferase reporter, in the presence of CHO-K1-hFcγRIIb cells as cross-linker", "setting": "[3]", "value": 0.27, "unit": "nM"}, {"measurement": "EC50 (nM), IL-2 secretion of SEA-stimulated human PBMC, Donor #102", "setting": "[4]", "value": 0.047, "unit": "nM"}, {"measurement": "Masking efficiency", "setting": "[5]", "value": 1, "unit": "fold"}, {"measurement": "Kd", "setting": "[1]", "value": 0.176, "unit": "nM"}]}
{"binder": "B4", "values": [{"measurement": "Masking efficiency", "setting": "[6]", "value": 1, "unit": "fold"}, {"measurement": "Masking efficiency", "setting": "[7]", "value": 1, "unit": "fold"}, {"measurement": "Masking efficiency", "setting": "[8]", "value": 1, "unit": "fold"}, {"measurement": "Masking efficiency", "setting": "[5]", "value": 1, "unit": "fold"}, {"measurement": "Kd", "setting": "[9]", "value": 0.282, "unit": "nM"}, {"measurement": "Kd", "setting": "[10]", "value": 0.292, "unit": "nM"}, {"measurement": "Kd", "setting": "[11]", "value": 0.355, "unit": "nM"}, {"measurement": "Kd", "setting": "[1]", "value": 0.199, "unit": "nM"}, {"measurement": "Kd", "setting": "[12]", "value": 1800, "unit": "nM"}, {"measurement": "Kd", "setting": "[13]", "value": 2300, "unit": "nM"}]}
{"binder": "B5", "values": [{"measurement": "EC50", "setting": "[14]", "value": 0.275, "unit": "nM"}, {"measurement": "Kd", "setting": "[15]", "value": 0.115, "unit": "nM"}, {"measurement": "Masking efficiency", "setting": "[16]", "value": 1, "unit": "fold"}, {"measurement": "Masking efficiency", "setting": "[17]", "value": 1, "unit": "fold"}]}
